# Measurements from article PMC4336329 (PLoS ONE, 2015).
# Screen size: about 310,000 compounds; about 2,200 (0.71%) showed an effect of 50% or more. The effect is printed as a negative number. The list shows a part of the results.
# Target: human ether-à-go-go-related gene (hERG) potassium channel (human, UniProt Q12809)
# Assay: primary screen, population patch clamp on CHO cells stably expressing hERG
# Method: Briefly, Chinese hamster ovary (CHO) cells stably expressing the hERG channel were dislodged from tissue culture flasks and dispensed into PPC plates. […] During the recording, background leak currents were estimated by a 100 ms step to -80 mV from an initial holding potential of -70 mV and subtracted from the subsequent current measurement. The campaign was conducted in two phases using slight differences in recording protocol. In the first phase, the initial voltage pulse used a 100 ms step to -30 mV from a holding potential of -70 mV, a 2 s conditioning step to +25 mV, and a 2 s test step to -30 mV. During the second phase of the screen, the potential during the conditioning step was raised to +45 mV. In both phases of the campaign, a secondary voltage pulse was applied using the same parameters as the second phase initial pulse. The initial and secondary pulses were applied in the absence of compound, and upon application of 1 μM and 10 μM test concentrations. Small molecule effects on hERG current density were quantified by […].
# Sequence of human ether-à-go-go-related gene (hERG) potassium channel (Q12809 whole entry, looked up): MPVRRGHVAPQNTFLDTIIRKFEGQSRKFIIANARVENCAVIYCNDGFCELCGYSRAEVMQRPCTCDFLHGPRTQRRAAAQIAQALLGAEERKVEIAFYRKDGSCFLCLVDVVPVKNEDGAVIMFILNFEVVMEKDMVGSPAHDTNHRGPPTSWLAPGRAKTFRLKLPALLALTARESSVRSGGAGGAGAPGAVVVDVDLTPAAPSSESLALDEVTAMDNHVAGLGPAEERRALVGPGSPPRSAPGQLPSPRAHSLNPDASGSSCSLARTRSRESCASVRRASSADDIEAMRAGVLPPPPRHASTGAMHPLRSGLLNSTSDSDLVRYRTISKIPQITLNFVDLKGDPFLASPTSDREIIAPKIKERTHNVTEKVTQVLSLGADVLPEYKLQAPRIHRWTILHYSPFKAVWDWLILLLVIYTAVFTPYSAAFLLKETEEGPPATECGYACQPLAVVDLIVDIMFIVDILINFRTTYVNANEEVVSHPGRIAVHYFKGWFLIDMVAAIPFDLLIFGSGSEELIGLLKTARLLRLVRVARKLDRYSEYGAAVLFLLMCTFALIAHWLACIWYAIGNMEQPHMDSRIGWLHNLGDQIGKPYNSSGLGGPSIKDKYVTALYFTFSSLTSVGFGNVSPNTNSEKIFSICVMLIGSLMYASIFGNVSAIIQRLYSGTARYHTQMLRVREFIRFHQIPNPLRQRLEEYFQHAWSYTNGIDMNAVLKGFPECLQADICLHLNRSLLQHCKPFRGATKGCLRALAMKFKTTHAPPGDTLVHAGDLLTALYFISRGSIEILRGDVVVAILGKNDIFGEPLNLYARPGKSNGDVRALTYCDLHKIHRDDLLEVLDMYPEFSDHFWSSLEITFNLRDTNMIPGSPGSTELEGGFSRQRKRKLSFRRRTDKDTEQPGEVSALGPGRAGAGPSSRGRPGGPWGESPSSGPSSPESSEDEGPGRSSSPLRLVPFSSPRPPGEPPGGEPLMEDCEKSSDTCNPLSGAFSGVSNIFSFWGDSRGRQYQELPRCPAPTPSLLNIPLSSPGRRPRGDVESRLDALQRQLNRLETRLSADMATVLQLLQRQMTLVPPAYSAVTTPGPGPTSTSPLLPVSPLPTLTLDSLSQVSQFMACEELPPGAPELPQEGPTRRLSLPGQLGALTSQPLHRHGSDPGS
row,Compound,"hERG current change (%, negative = inhibition) at 1uM [%]"
1,O=c1cc(-c2ccc(F)cc2F)[nH]c2ccccc12,6.35
2,CN(C)CCOC(=O)c1cccc(Br)c1.Cl,-1.29
3,CS(=O)(=O)O/N=C1\CCCCC1c1ccc([N+](=O)[O-])cc1[N+](=O)[O-] (stereo not shown),8.44
4,COc1ccccc1-c1noc(-c2cc(OC)c(OC)c(OC)c2)n1,-2.53
5,CCOc1ccc(NC(=O)C(=O)NCCN2CCN(S(=O)(=O)c3ccccc3)CC2)cc1,-4.13
6,Cl.N=c1sccn1CC(=O)Nc1ccc(S(N)(=O)=O)cc1,12.4
7,C=CCOc1ccc(C2C(C#N)=C(N)N(Nc3ccccc3)C3=C2C(=O)CCC3)cc1OC (stereo not shown),-1.71
8,CCC1Sc2ccc(S(=O)(=O)Nc3ccc(OC)cc3)cc2NC1=O (stereo not shown),11
9,Cc1ccc(C(=O)c2ccc([N+](=O)[O-])cc2)cc1C,10.8
10,O=C(CCCn1c(=S)[nH]c2ccc(Br)cc2c1=O)NCc1ccccn1,12
11,COc1cccc(OCCNCc2ccccc2)c1.O=C(O)C(=O)O,10.9
12,CCOc1ccccc1NC(=O)c1ccc(Cl)c(NC(=O)CC(c2ccccc2)c2ccccc2)c1,5.65
13,COc1ccccc1CCNC(=O)C(=O)NCC1OCCCN1S(=O)(=O)c1cc(C)ccc1C (stereo not shown),2.89
14,COc1ccccc1-c1cn[nH]c(=S)n1,17.5
15,CCOC(=O)CN1C(=O)/C(=C/c2cccc(Br)c2)Oc2ccccc21,15.3
16,Cc1ccc(C(=O)N/C(=C/c2ccco2)C(=O)NC2CCS(=O)(=O)C2)cc1 (stereo not shown),13.2
17,O=C(NNC(=O)c1cccc(Br)c1)Nc1ccc(Cl)cc1,9.84
18,O=CNNC(=O)c1cccc([N+](=O)[O-])c1,15.9
19,CCc1ccc(N2C(=O)NC(=O)/C(=C/c3cccn3CCOc3ccc(C(C)CC)cc3)C2=O)cc1 (stereo not shown),14
20,Cc1ccc(C(=O)NC(C)C2CC3CCC2C3)cc1 (stereo not shown),15.1
21,O=C(CNS(=O)(=O)c1ccc(Br)s1)NCc1ccccc1,16.8
22,Cc1c(Cl)c(C(=O)N2CCCCCC2)nn1C,13.4

row,Compound,"hERG current change (%, negative = inhibition) at 1uM [%]"
1,Cc1nn(-c2ccccc2)c(C)c1NC(=O)COC(=O)CCOc1ccccc1,-1.81
2,Nc1ncnc2c1ncn2CCNCCc1ccccc1,-13.7
3,CCN(C(=O)COC(=O)c1[nH]c(=O)[nH]c(=O)c1N)c1ccccc1,19.7
4,CN(C)c1ccc(-c2cccc(C3CC=CC4C3C(=O)N(Cc3ccccc3)C4c3ccc(C(F)(F)F)cc3)c2)cc1 (stereo not shown),16.7
5,CC(Oc1ccc2c(c1)oc(=O)c1ccccc12)C(=O)NC(Cc1c[nH]c2ccc(O)cc12)C(=O)O (stereo not shown),17
6,O=C(CCSc1ccccc1)NCCSc1ccccn1,15.7
7,COc1cccc(Cl)c1NC(=O)N1CCN(c2cc(C)nc3ccccc23)CC1,-49.8
8,N=C1C(c2nc3ccccc3s2)=C(O)CN1C1CCC(O)CC1 (stereo not shown),9.85
9,Cc1cccc(OC(=O)c2sc(Cl)nc2C)c1,-2.52
10,CCS(=O)(=O)NCC(c1cccnc1)N1CCN(c2ccccc2OC)CC1 (stereo not shown),6
11,CN(CC(=O)NC1CC(C)(C)NC(C)(C)C1)S(=O)(=O)c1ccc(Br)cc1,3.35
12,Cc1ccc(Cc2cnc(NC(=O)/C(C#N)=C/c3ccc(-c4ccc([N+](=O)[O-])cc4)o3)s2)cc1,10.7
13,COc1ccc(OC)c(S(=O)(=O)Nc2ccccc2C)c1,10.2
14,Cc1cccc(NC2=NC(=S)N(c3cccc(C(=O)O)c3)C23CCCCC3)c1,13.5
15,Cc1cc(C)cc(-n2c(SCC(=O)NCc3ccco3)nc3ccccc3c2=O)c1,7.3
16,O=S(=O)(Cc1cc(Cl)nc(-c2cccnc2)n1)c1ccccc1,4.47
17,CCN(CC)CCCC(C)N=C(c1ccccc1)c1c(O)n(C)c(=O)n(C)c1=O (stereo not shown),11.9
18,COCCCn1c(SCC(=O)NC(C)(C)C)nnc1-c1cccs1,10.8
19,CCOC(=O)c1c(C)[nH]c(C)c1C(=O)COC(=O)C1CCCN1S(=O)(=O)c1ccccc1F (stereo not shown),9.3
20,COc1ccc(/C=C(\C#N)c2n[nH]c(Cn3cncn3)n2)cc1,3.43
21,CSc1ncccc1C(=O)OCC(=O)N(C)C1CCS(=O)(=O)C1 (stereo not shown),12.8
22,O=C(NC(=S)N1CCN(c2ccc(F)cc2)CC1)c1cccs1,0.287

row,Compound,"hERG current change (%, negative = inhibition) at 1uM [%]"
1,Cc1[nH]n(-c2ccccc2)c(=O)c1C=NCc1ccncc1,-1.94
2,CCN1CCN(c2c(Cl)cccc2NC(=O)c2cc3ccccc3o2)CC1,4.41
3,O=C(COc1ccc(Cl)cc1Br)Nc1ccncc1,4.76
4,CN1C(=O)NC(c2ccccc2[N+](=O)[O-])C2=C1CCCC2=O (stereo not shown),9.86
5,Cc1cc(C)n(CCC(=O)N/N=C/c2ccccc2O)n1,13.4
6,S=c1[nH]nc(CSc2nc3ccccc3s2)o1,3.83
7,O=CN1N=C(c2ccccc2)CC1c1ccc(Cl)cc1 (stereo not shown),-3.5
8,COC(=O)c1ccccc1NC(=O)CN(C)S(=O)(=O)c1ccc(OC)cc1,6.94
9,Cc1cc(C)nc(NS(=O)(=O)c2ccc(NC(=O)CSc3ncn[nH]3)cc2)n1,14
10,CCOC(=O)c1cc(-c2cccc([N+](=O)[O-])c2)on1,11.5
11,COC(=O)c1ccc(CNC(=O)c2sccc2-c2ccccc2)cc1,13
12,COc1ccc(NC(=O)N2CCN(S(C)(=O)=O)CC2)cc1OC,11.4
13,O=C(NCCc1ccc(Cl)cc1)c1ccc2ccccc2n1,3.69
14,CN(CC(=O)Nc1cccc(F)c1)C(=O)C1CC(=O)N(Cc2ccccc2)C1 (stereo not shown),6.45
15,Brc1ccccc1/C=N/Nc1nc2ccccc2o1,13.5
16,COc1ccccc1OCCC(=O)OCC(=O)Nc1cc(S(=O)(=O)N2CCOCC2)ccc1Cl,6.47
17,O=C(C1CCN(S(=O)(=O)c2ccccc2)CC1)N1CCCCC1,4.28
18,O=C(/C=N/O)NCC1CCNCC1,19.1
19,Cc1cc(=O)oc(C)c1C(=O)Nc1cccc2nonc12,0.776
20,O=C(c1cccs1)N1CCN(c2ncc(Br)cn2)CC1,13.4
21,CCCN1Cc2cccc(C(=O)NCc3ccc4c(c3)OCO4)c2C1=O,2.81
22,COc1ccc(-c2cnc3c(-c4ccc(F)cc4)cnn3c2N)cc1,15.9

row,Compound,"hERG current change (%, negative = inhibition) at 1uM [%]"
1,O=C1C2C(C(=O)N1c1ccc3c(c1)OCO3)C1C=CC2C12CC2 (stereo not shown),2.83
2,Cl.O=C(c1ccco1)N(CCCN1CCOCC1)c1nc(-c2ccc(F)cc2)cs1,13.3
3,Fc1ccc(N2CCN(c3ncnc4c3nnn4Cc3ccccc3Cl)CC2)cc1,14.2
4,Cc1ccccc1OC1CCN(C(=O)c2cc(COc3ccccc3)on2)CC1,13
5,CCOC(=O)CCNCc1ccc(F)cc1.Cl,9.06
6,N#CCCCSc1nnc(CSc2nc3ccccc3s2)n1-c1ccccc1,-8.46
7,Cn1c(/C=C/c2ccc(Br)cc2)nc2ccccc2c1=O,17.1
8,CCOC(=O)c1c(S(=O)(=O)NCCc2ccccc2)c(C)n(C)c1C,-11.1
9,CCOc1ccc(S(=O)(=O)N(C)c2ccc(OCC(=O)Nc3nccs3)cc2)cc1,7.75
10,COc1ccc(-c2cnn3c(N)c(S(=O)(=O)c4ccccc4)cnc23)cc1,4.24
11,Cc1ccc(C)c(NC(=O)CCN2CCN(CCO)CC2)c1.Cl,7.85
12,CCN(CC)c1ccc(CN(C)CCc2ccc(OC)c(OC)c2)cc1,-40
13,O=C(CCCSc1nc2sc3c(c2c(=O)[nH]1)CCC3)NCCO,15.2
14,O=C(Nc1ccc(O)cc1)c1ccc(NC(=O)C2CCCO2)cc1 (stereo not shown),5.74
15,CCOCCOC(=O)c1ccc(NC(=O)C2COc3ccccc3O2)cc1 (stereo not shown),14
16,CCc1ccc2oc(-c3ccc(OC)cc3)cc(=[NH+]c3cccc(C(=O)O)c3)c2c1.F[B-](F)(F)F,4.56
17,CCNS(=O)(=O)c1ccc(NC(=O)c2c(-c3ccccc3)noc2C)cc1,10.6
18,COc1ccc(CC(=O)N2CCN(S(=O)(=O)c3cc(Cl)ccc3Cl)CC2)cc1,14
19,COc1ccc(C2CC(=O)C(CS(=O)(=O)c3ccccc3)C(=O)C2)cc1 (stereo not shown),17.8
20,CCCCCCc1ccc(N2C[C@H](Cc3ccccc3)[C@@H](CC(=O)Nc3ccccc3)C2=O)cc1,8.9
21,O=C(c1cccn2c(=O)c3cc(Br)ccc3nc12)N1CCN(c2ccccn2)CC1,-2.68
22,Cc1ccccc1-c1cc(C(=O)NCc2ccco2)n(CC2CC(c3cccnc3)=NO2)n1 (stereo not shown),-2.01
